# Source: PubChem BioAssay AID488969 (Vanderbilt High Throughput Screening Facility, 2010)
# Over roughly 110,000 compounds, “z-score” has its median near -0.1; the highest 2% begin near 2. The list shows a part of the results. Active and inactive are the calls of the source.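 Rule for the calls: active = z-score in the third read window above 3 or below -3; inactive = the rest.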
# Target: Metabotropic glutamate receptor 8 (Rattus norvegicus) (UniProt P70579)
# Test: mGluR8 Gi/Go-coupled signaling modulation – cell-based, rat, thallium flux, HTS, primary screen (AID 488969)
# Details: HEK293 rat mGluR8, GIRK (G protein-gated inwardly rectifying potassium channel) thallium flux, FluoZin2; at 10 µM; stronger effect = higher value; submaximal glutamate (EC20) added with thallium
# Chain of UniProt P70579 (P70579 whole entry, looked up): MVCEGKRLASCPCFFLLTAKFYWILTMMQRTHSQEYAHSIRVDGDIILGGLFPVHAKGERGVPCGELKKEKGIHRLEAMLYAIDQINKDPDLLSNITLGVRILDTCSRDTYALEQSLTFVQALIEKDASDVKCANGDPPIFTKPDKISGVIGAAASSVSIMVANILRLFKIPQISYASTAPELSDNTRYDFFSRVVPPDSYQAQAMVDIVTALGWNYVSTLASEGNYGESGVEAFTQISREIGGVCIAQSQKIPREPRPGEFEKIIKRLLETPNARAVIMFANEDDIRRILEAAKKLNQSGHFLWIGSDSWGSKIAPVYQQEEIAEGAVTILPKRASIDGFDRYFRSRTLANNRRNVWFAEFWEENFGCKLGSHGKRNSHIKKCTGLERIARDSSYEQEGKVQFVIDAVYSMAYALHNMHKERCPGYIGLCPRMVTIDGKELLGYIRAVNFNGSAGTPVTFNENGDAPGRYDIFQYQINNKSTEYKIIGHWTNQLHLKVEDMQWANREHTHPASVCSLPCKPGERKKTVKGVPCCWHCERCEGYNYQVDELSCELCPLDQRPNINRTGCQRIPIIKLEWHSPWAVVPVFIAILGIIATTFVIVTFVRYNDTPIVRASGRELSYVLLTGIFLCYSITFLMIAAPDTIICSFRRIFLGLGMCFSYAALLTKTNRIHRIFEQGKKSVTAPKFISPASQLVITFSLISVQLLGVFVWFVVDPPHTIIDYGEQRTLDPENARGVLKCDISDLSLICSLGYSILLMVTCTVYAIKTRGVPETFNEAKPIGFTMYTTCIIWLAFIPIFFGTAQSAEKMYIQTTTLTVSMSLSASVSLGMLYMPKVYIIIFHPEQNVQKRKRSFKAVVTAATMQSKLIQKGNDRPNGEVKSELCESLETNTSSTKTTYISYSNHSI
row,Compound,z-score
1,CCNC(=S)Nc1ccc(Cl)c(C(F)(F)F)c1,0.39
2,COc1cc(C(=O)CSc2nncn2C)cc(OC)c1OC,-0.245
3,N#C/C(=C\c1ccc2c(c1)OCCO2)C(=O)NC1CCCCC1,-0.000416
4,CSC1=C(C#N)C(c2ccccc2Cl)C(C(=O)c2cccs2)C(O)(C(F)(F)F)N1 (stereo unspecified),-1.22
5,CCOc1ccc(S(=O)(=O)N(CC(=O)Nc2cc(C)on2)Cc2ccccc2Cl)cc1,-1.72
6,COC(=O)c1ccc(CSc2nc3cc(Cl)ccc3o2)cc1,-0.418
7,Cc1ccnc(NC(=O)c2cccs2)c1,-0.306
8,O=S(=O)(c1ccc(Oc2ccc(Cl)cc2)c(S(=O)(=O)N2CCCCC2)c1)N1CCCCC1,-0.278
9,Cn1c(C(=O)N2CCN(Cc3ccc4c(c3)OCO4)CC2)cc2c(=O)n(C)c3ccccc3c21,-0.512
10,COc1cc(OC)c(C2=NOC(C(=O)N3CCc4ccccc4C3)C2)cc1Cl (stereo unspecified),-0.587
11,Cc1cccc(C)c1N1C(=O)CC(N(O)c2ccccc2)C1=O (stereo unspecified),-0.0986
12,Cn1c(NC(=O)CCc2ccccc2)cc(=O)n(C)c1=O,-0.492
13,Cn1c(-c2ccc(-c3ccccc3)cc2)c[nH]c1=S,active: 4.21
14,Cn1c(=O)n(Cc2ccccc2)c(=O)c2c1nc1n2CCCN1CCc1ccccc1,-1.53
15,O=C(c1ccccc1)N1CCCC(C(=O)N2CCc3ccccc3C2)C1 (stereo unspecified),-1.49
16,O=C(N/N=C/c1cccc(OC2CSC2)c1)c1ccccc1O,-0.125
17,COc1ccccc1NC(=O)c1cnc2n(c1=O)CCS2,1.09
18,CC(=O)C1=C(C)NC(C)=C(C(C)=O)C1c1cccs1,-0.269
19,CCOC(=O)C1CCN(S(=O)(=O)c2ccc(Cl)cc2OC)CC1,-0.0193
20,CSc1ccc(S(=O)(=O)NCc2ccc(C)cc2)cc1,-0.724
21,Cc1cc(C)nc(SCc2csc(-c3ccccc3)n2)n1,-0.101
22,CC(C)n1nc(C(=O)Oc2cccc(Cl)c2Cl)c2ccccc2c1=O,-0.0207
23,O=C(CSc1ccc2ccccc2c1)Nc1ncccn1,0.0799

row,Compound,z-score
1,COC(=O)CNC(=O)CCCCC(=O)NCC(=O)OC,-0.123
2,CCNC(=S)N(Cc1ccco1)Cc1cc2cc3c(cc2[nH]c1=O)OCCO3,0.158
3,Cn1cc(Br)c(C(=O)N2CCN(c3cccc(Cl)c3)CC2)n1,0.000721
4,CSc1nc2cc3c(cc2n1C(=O)c1ccc(C)cc1)OCCO3,-0.0138
5,Cc1ccccc1-c1nc(S(=O)(=O)c2ccc(Br)cc2)c(NCc2cccnc2)o1,-0.22
6,COC(=O)C1(C(F)(F)F)N=C2Sc3ccccc3N2C(N2CCOCC2)=N1 (stereo unspecified),-0.255
7,Cc1ccc(S(=O)(=O)CCc2nc3ccccc3s2)cc1,-0.0613
8,COc1ccc2c(c1OC)C(=O)c1ccccc1C2=O,0.154
9,CN1CCN(S(=O)(=O)c2ccc(Sc3nc4ccccc4[nH]3)c3nsnc23)CC1,0.409
10,CCC(=O)N1CCN(c2nc(C)nc3sc(C)c(C)c23)CC1,-0.295
11,COCCn1cc(C(=O)N2CCC(C)CC2)c2c3ccccc3n(C)c2c1=O,0.278
12,CCCCc1ccc(NC(=O)N[C@H](C(=O)O)C(C)CC)cc1 (stereo partly specified),0.195
13,CCOC(=O)C1CCN(CCC(=O)Nc2ccccc2Cl)CC1,-0.357
14,COC(=O)c1ccccc1NS(=O)(=O)c1ccc(F)cc1,1.24
15,COc1ccc(S(=O)(=O)N2CCCC(C(=O)NC3CCCCC3)C2)cc1 (stereo unspecified),-0.893
16,Nc1nnc(Cc2ccc(Cl)cc2Cl)s1,0.276
17,CC(C)(C)c1ccc(OCC(O)CSc2ncn[nH]2)cc1 (stereo unspecified),-0.0863
18,O=C(Nc1ccccc1)C12CC3CC(C1)CC(n1cnc([N+](=O)[O-])n1)(C3)C2,-0.0536
19,CCOC(=O)C1=C(O)/C(=C/c2ccc(OCC(=O)O)c(OC)c2)SC1=Nc1ccc(OC)cc1,-0.434
20,S=C(Nc1ccc(Cl)cc1)c1nc2ccccc2[nH]1,active: 6.95
21,Cn1cccc1C(=O)NC(=O)CSc1nnc(C2CC2)n1-c1ccccc1,-0.822
22,CC1=C(C(=O)Nc2ccc(F)cc2)C(c2ccncc2)C2=C(CCCC2=O)N1 (stereo unspecified),0.356
23,O=C(NC(=O)c1ccncc1)NC(c1ccccc1)c1ccccc1,-0.156

row,Compound,z-score
1,Cc1[nH]c2ccccc2c1Cc1nnc(SCCC#N)o1,-0.0224
2,Cc1ccccc1NC(=S)NCCC(c1ccccc1)c1ccccc1,-0.309
3,C=C(C)COc1ccc(-c2nc(N)ncc2Oc2ccccc2OCC)c(O)c1,0.133
4,COc1ccc(C2N(c3ccc(Cl)cc3)C(=O)C3CCCN32)cc1 (stereo unspecified),-0.0547
5,CC1CN(c2ccc(C(F)(F)F)cc2[N+](=O)[O-])CCN1S(C)(=O)=O (stereo unspecified),-0.214
6,CCC(=NCCN1CCNCC1)C1=C(O)CC(C)(C)CC1=O,0.198
7,Cc1ccc(N=Cc2c(O)n(-c3cc(Cl)ccc3N3CCOCC3)c(=O)c3ccccc23)cc1C,-0.575
8,C=CCN1C(=O)C(Cc2ccc(OC)cc2)SC1=Nc1ccc(C(=O)O)cc1 (stereo unspecified),-0.251
9,CCCCCC(=O)NC(=S)Nc1ccc(N2CCCCC2)c(Cl)c1,-0.183
10,C/C(N)=C(\C#N)C(=O)NCc1ccccn1,1.05
11,COc1ccc2sc(NC(=O)c3ccco3)nc2c1,-0.509
12,Cc1ccc(C2CC(=O)Nc3c2ccc2ccccc32)cc1[N+](=O)[O-] (stereo unspecified),-0.0483
13,O=C(Cn1nnc(-c2ccccc2)n1)NCc1ccccc1,0.748
14,CCOc1cc(N2CCOCC2)c(OCC)cc1NC(=O)CN1CCCC1,0.0453
15,COc1ccc(OCC(=O)Nc2cccc(NC(=O)COc3ccc(OC)cc3)n2)cc1,1.17
16,O=C(OCc1ccccc1)Oc1cncc(C(=O)O)c1,2.64
17,O=C(CCCN1C(=O)c2ccccc2C1=O)Nc1ccccn1,-0.0505
18,O=C(CSc1nnnn1-c1ccccc1)Nc1ncc(Cc2cccc(Cl)c2Cl)s1,-0.174
19,O=C1NC(c2ccccc2)=C(c2ccc3ccccc3n2)C(c2ccc(F)cc2)N1 (stereo unspecified),0.277
20,COc1ccc(/C=N/NC(=O)c2ccoc2C)cc1OC,-0.107
21,COc1cc(S(=O)(=O)N2CCCCC2)ccc1NC(=O)Cc1ccccc1,-0.203
22,CC(C)CC(=O)O/N=C1\C(=O)N(Cc2ccc(Cl)cc2)c2ccc([N+](=O)[O-])cc21,-0.196
23,O=C(O)CCC(=O)Nc1ccc(OCC(=O)O)cc1,0.144

row,Compound,z-score
1,COC(=O)c1ccc(COC(=O)CCc2nc(-c3ccccc3)c(-c3ccccc3)o2)cc1,-0.074
2,O=S1(=O)CCC(NC(=S)N2CCCCCC2)C1 (stereo unspecified),-0.138
3,Cc1cc(N=CC2=C(O)CC(C)(C)CC2=O)no1,0.425
4,NC(=S)N/N=C/c1ccccc1OCc1cccc(Cl)c1,-0.0335
5,CC(=O)NCCOc1nc(N(C)C)nc(N(C)C)n1,-0.242
6,C=CCN(CC=C)C(=O)c1cc(Cl)ccc1[N+](=O)[O-],-0.225
7,CCN(CC)c1ccc2cc(-c3nnc(-c4ccncc4)o3)c(=O)oc2c1,-1.17
8,CCC/C=N/NC(=O)c1[nH]c2c([N+](=O)[O-])cccc2c1C,2.02
9,CCOC(=O)C1=C(CSCC(=O)OC)NC(=O)NC1c1cc(C)ccc1C (stereo unspecified),-0.26
10,CN1CC(c2ccc(C#N)cc2)C2(COc3ccccc3C2=O)C12C(=O)Nc1ccccc12 (stereo unspecified),-0.214
11,Cc1noc(C)c1COc1cccc(C(=O)NCc2ccccc2Cl)c1,-0.768
12,COc1ccc(-c2oc(NC(=O)CSc3ncn[nH]3)c(C#N)c2-c2ccc(OC)cc2)cc1,-0.566
13,CC1(C)CC(=O)C(C=Nc2cccc(/N=C/C3=C(O)CC(C)(C)CC3=O)n2)=C(O)C1,0.119
14,COC(=O)C1=NN(c2ccccc2OC)C2C(=O)N(c3ccccc3OC)C(=O)C12 (stereo unspecified),-0.137
15,COc1ccc(C(c2nnnn2Cc2ccccc2)N2CCN(c3nc4ccccc4s3)CC2)cc1OC (stereo unspecified),-0.223
16,O=C(Nc1ncccc1Cl)C1COc2ccccc2O1 (stereo unspecified),-0.0655
17,Cc1ccc(SCc2cc(=O)[nH]c(N3CCOCC3)n2)cc1,-0.636
18,COc1cccc(NC(=O)C2C3C=CC4(O3)C2C(=O)N(C2CC2)C4C(=O)NC2CCCCC2C)c1 (stereo unspecified),-0.0656
19,Cc1sc(NC(=O)C2C3CCC(C3)C2C(=O)O)c(C(N)=O)c1-c1ccc(C(C)(C)C)cc1 (stereo unspecified),1.58
20,O=C(Cc1ccccc1F)Nc1ccc(SC(F)F)cc1,-0.252
21,Cc1nnc(N2C(=O)C(O)=C(C(=O)c3ccco3)C2c2ccc(F)cc2)s1 (stereo unspecified),-1.8
22,O=c1oc2ccccc2n1CCn1c2ccccc2c2nc3ccccc3nc21,0.0202
23,CC(C)(C)OC(=O)NNC(=S)NCc1ccc(Cl)cc1,-0.208

row,Compound,z-score
1,Cc1ccccc1C(O)c1ccccn1 (stereo unspecified),-0.0885
2,CCC(C)(C)NC(=O)C(c1ccc(C)cc1)N(Cc1cccs1)C(=O)c1ccc2c(c1)OCCO2 (stereo unspecified),-0.522
3,COc1ccc(-c2ncc3ccccn23)cc1OC,-0.266
4,Cc1ccc(C)n1-c1ccncc1,0.151
5,CC1=C(C(=O)Nc2ccccc2)C(c2ccco2)C(C#N)=C(SCc2ccccc2)N1 (stereo unspecified),-0.138
6,COc1cc(CNc2ccc3[nH]c(=O)[nH]c3c2)cc(Br)c1OCC(=O)NC(C)(C)C,-0.442
7,Cc1cccc(N2CCN(C(=O)Cc3cn(C)c4ccccc34)CC2)c1C,-0.0564
8,CCS(=O)(=O)c1ccc(C(=O)Nc2cccc(Cl)c2)c(Cl)c1Cl,-0.531
9,CCn1nccc1C(=O)Nc1ccc(Cl)c(Cl)c1,-0.202
10,O=C(O)c1ccc2cccc(Cl)c2c1O,-0.126
11,c1nnc(NC2=NCCC2)s1,1.04
12,O=C(c1ccc(=O)oc1)N1CCCc2ccccc21,0.021
13,CCN(CC)c1ccc(NC(=O)Nc2cccc(C(C)=O)c2)cc1,0.62
14,Cc1ccc(N(CC(=O)N/N=C/c2cccs2)S(C)(=O)=O)cc1Cl,0.481
15,CCOC(=O)c1c(NC(=O)c2nn(CC)cc2Br)sc2c1CCCCC2,-0.179
16,CCc1cccc(CC)c1NC(=O)COC(=O)c1cccc(-c2ccc(OC(C)=O)cc2)c1,-1.91
17,Cc1nc(CCNC(=O)Cc2ccc(Cl)cc2)cs1,0.111
18,Cc1ccccc1-n1c(=O)c2ccccc2n2c(=O)[nH]nc12,0.413
19,COc1ccc(S(=O)(=O)N2CCC(C(=O)N3CCCCCC3)CC2)cc1,-0.382
